# Results published in the supplement of paper PMC8728848.
# The other results are listed elsewhere or left out.
# B1: Strep tagII-anxA1 (Homo sapiens), P04083 (protein)
# chain: MAMVSEFLKQAWFIENEEQEYVQTVKSSKGGPGSAVSPYPTFNPSSDVAALHKAIMVKGVDEATIIDILTKRNNAQRQQIKAAYLQETGKPLDETLKKALTGHLEEVVLALLKTPAQFDADELRAAMKGLGTDEDTLIEILASRTNKEIRDINRVYREELKRDLAKDITSDTSGDFRNALLSLAKGDRSEDFGVNEDLADSDARALYEAGERRKGTDVNVFNTILTTRSYPQLRRVFQKYTKYSKHDMNKVLDLELKGDIEKCLTAIVKCATSKPAFFAEKLHQAMKGVGTRHKALIRIMVSRSEIDMNDIKAFYQKMYGISLCQAILDETKGDYEKILVALCGGN
# What was measured:
# Test in all cases: glycan array binding signal (z-score within array); higher = stronger binding
# Conditions in all cases: glycan notation: IUPAC condensed, linker removed
# [1] = molecular target: Fuc(a1-2)[GalNAc(a1-3)]Gal(b1-4)GlcNAc(b1-3)Gal(b1-4)GlcNAc
# In short: (§1)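 Negative Z-scores can be read as non-binding. The Z-score is calculated within each array and then averaged across arrays of one protein sequence at different concentrations or buffers and across linkers. Arrays, 3228 in all, were curated from the Consortium for Functional Glycomics database and kept only where the protein sequence was available.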
# [2] = molecular target: Fuc(a1-2)[GalNAc(a1-3)]Gal(b1-4)GlcNAc(b1-3)Gal(b1-4)GlcNAc(b1-3)Gal(b1-4)GlcNAc
# In short: as §1
# [3] = molecular target: Fuc(a1-2)[GalNAc(a1-3)]Gal(b1-4)GlcNAc(b1-3)GalNAc
# In short: as §1
# [4] = molecular target: Fuc(a1-2)[GalNAc(a1-3)]Gal(b1-4)[Fuc(a1-3)]GlcNAc
# In short: as §1
# [5] = molecular target: Fuc(a1-2)[GalNAc(a1-3)]Gal(b1-4)[Fuc(a1-3)]GlcNAc(b1-3)GalNAc
# In short: as §1
# [6] = molecular target: Fuc(a1-2)[GalNAc(a1-4)]Gal(b1-4)GlcNAc
# In short: as §1
# [7] = molecular target: Fuc(a1-2)[GalNAc(b1-3)]Gal
# In short: as §1
# Fuc(a1-3)GlcNAc = molecular target: Fuc(a1-3)GlcNAc
# In short: as §1
# [8] = molecular target: Fuc(a1-3)[Gal(b1-4)]Glc6S
# In short: as §1
# [9] = molecular target: Fuc(a1-3)[Gal(b1-4)]GlcNAc
# In short: as §1
# [10] = molecular target: Fuc(a1-3)[Gal(b1-4)]GlcNAc(b1-2)Man
# In short: as §1
# [11] = molecular target: Fuc(a1-3)[Gal(b1-4)]GlcNAc(b1-2)Man(a1-3)[Fuc(a1-3)[Gal(b1-4)]GlcNAc(b1-2)Man(a1-6)]Man(b1-4)GlcNAc(b1-4)GlcNAc
# In short: as §1
# [12] = molecular target: Fuc(a1-3)[Gal(b1-4)]GlcNAc(b1-2)Man(a1-3)[Fuc(a1-3)[Gal(b1-4)]GlcNAc(b1-2)Man(a1-6)]Man(b1-4)GlcNAc(b1-4)[Fuc(a1-6)]GlcNAc
# In short: as §1
# [13] = molecular target: Fuc(a1-3)[Gal(b1-4)]GlcNAc(b1-3)Gal(b1-3)[Fuc(a1-4)]GlcNAc
# In short: as §1
# [14] = molecular target: Fuc(a1-3)[Gal(b1-4)]GlcNAc(b1-3)GalNAc
# In short: as §1
# [15] = molecular target: Fuc(a1-3)[Gal(b1-4)]GlcNAc(b1-4)Gal(b1-4)[Fuc(a1-3)]GlcNAc
# In short: as §1
# [16] = molecular target: Fuc(a1-3)[Gal(b1-4)]GlcNAc(b1-4)Gal(b1-4)[Fuc(a1-3)]GlcNAc(b1-4)Gal(b1-4)[Fuc(a1-3)]GlcNAc
# In short: as §1
# [17] = molecular target: Fuc(a1-3)[Gal(b1-4)]GlcNAc(b1-6)GalNAc
# In short: as §1
# [18] = molecular target: Fuc(a1-3)[Gal(b1-4)]GlcNAc(b1-6)[Gal(b1-3)GlcNAc(b1-3)]Gal(b1-4)Glc
# In short: as §1
# [19] = molecular target: Fuc(a1-3)[Gal(b1-4)]GlcNAc(b1-6)[Neu5Ac(a2-3)Gal(b1-3)]GalNAc
# In short: as §1
# [20] = molecular target: Fuc(a1-3)[Gal(b1-4)]GlcNAc6S
# In short: as §1
# [21] = molecular target: Fuc(a1-3)[Gal3S(b1-4)]GlcNAc
# In short: as §1
# [22] = molecular target: Fuc(a1-3)[Gal3S(b1-4)]GlcNAc6S
# In short: as §1
# [23] = molecular target: Fuc(a1-3)[GalNAc(b1-4)]GlcNAc
# In short: as §1
# [24] = molecular target: Fuc(a1-3)[GalNAc(b1-4)]GlcNAc6S
# In short: as §1
# [25] = molecular target: Fuc(a1-3)[GalNAc3S(b1-4)]GlcNAc
# In short: as §1
# Fuc(a1-4)GlcNAc = molecular target: Fuc(a1-4)GlcNAc
# In short: as §1
# Fuc(b1-3)GlcNAc = molecular target: Fuc(b1-3)GlcNAc
# In short: as §1
# Gal(a1-2)Gal = molecular target: Gal(a1-2)Gal
# In short: as §1
# Gal(a1-3)Gal = molecular target: Gal(a1-3)Gal
# In short: as §1
# Gal(a1-3)Gal(b1-3)GlcNAc = molecular target: Gal(a1-3)Gal(b1-3)GlcNAc
# In short: as §1
# [26] = molecular target: Gal(a1-3)Gal(b1-3)GlcNAc(b1-2)Man(a1-3)[Gal(a1-3)Gal(b1-3)GlcNAc(b1-2)Man(a1-6)]Man(b1-4)GlcNAc(b1-4)GlcNAc
# In short: as §1
# [27] = molecular target: Gal(a1-3)Gal(b1-3)GlcNAc(b1-3)GalNAc
# In short: as §1
# [28] = molecular target: Gal(a1-3)Gal(b1-3)GlcNAc(b1-6)GalNAc
# In short: as §1
# [29] = molecular target: Gal(a1-3)Gal(b1-3)[Fuc(a1-4)]GlcNAc(b1-2)Man(a1-3)[Gal(a1-3)Gal(b1-3)[Fuc(a1-4)]GlcNAc(b1-2)Man(a1-6)]Man(b1-4)GlcNAc(b1-4)GlcNAc
# In short: as §1
# Gal(a1-3)Gal(b1-4)Glc = molecular target: Gal(a1-3)Gal(b1-4)Glc
# In short: as §1
# Gal(a1-3)Gal(b1-4)GlcNAc = molecular target: Gal(a1-3)Gal(b1-4)GlcNAc
# In short: as §1
binder,measurement,setting,value
B1,glycan array binding signal (z-score),[1],-0.608
same,glycan array binding signal (z-score),[2],-0.338
same,glycan array binding signal (z-score),[3],-0.634
same,glycan array binding signal (z-score),[4],-0.318
same,glycan array binding signal (z-score),[5],0.306
same,glycan array binding signal (z-score),[6],-0.304
same,glycan array binding signal (z-score),[7],0.112
same,glycan array binding signal (z-score),Fuc(a1-3)GlcNAc,0.607
same,glycan array binding signal (z-score),[8],-0.5
same,glycan array binding signal (z-score),[9],-0.383
same,glycan array binding signal (z-score),[10],-0.536
same,glycan array binding signal (z-score),[11],1.27
same,glycan array binding signal (z-score),[12],2.81
same,glycan array binding signal (z-score),[13],-0.373
same,glycan array binding signal (z-score),[14],-0.209
same,glycan array binding signal (z-score),[15],-0.769
same,glycan array binding signal (z-score),[16],-0.757
same,glycan array binding signal (z-score),[17],2.53
same,glycan array binding signal (z-score),[18],-0.505
same,glycan array binding signal (z-score),[19],0.172
same,glycan array binding signal (z-score),[20],0.128
same,glycan array binding signal (z-score),[21],0.479
same,glycan array binding signal (z-score),[22],-0.558
same,glycan array binding signal (z-score),[23],2.28
same,glycan array binding signal (z-score),[24],-0.642
same,glycan array binding signal (z-score),[25],0.467
same,glycan array binding signal (z-score),Fuc(a1-4)GlcNAc,-0.555
same,glycan array binding signal (z-score),Fuc(b1-3)GlcNAc,0.528
same,glycan array binding signal (z-score),Gal(a1-2)Gal,0.189
same,glycan array binding signal (z-score),Gal(a1-3)Gal,-0.553
same,glycan array binding signal (z-score),Gal(a1-3)Gal(b1-3)GlcNAc,-0.449
same,glycan array binding signal (z-score),[26],1.78
same,glycan array binding signal (z-score),[27],-0.699
same,glycan array binding signal (z-score),[28],-0.473
same,glycan array binding signal (z-score),[29],2.11
same,glycan array binding signal (z-score),Gal(a1-3)Gal(b1-4)Glc,-0.638
same,glycan array binding signal (z-score),Gal(a1-3)Gal(b1-4)GlcNAc,-0.7
